According to PubChem BioAssay AID1508623 (National Center for Advancing Translational Sciences (NCATS), 2021):
Out of some 48,000 compounds screened, about 450 (0.94%) were called active. Another 19% or so got no clear call; they are omitted. The call rests on the fitted dose curve; in most records, active means well fitted inhibition curve with a large enough effect; inconclusive means small, poorly fitted or top-dose-only effect; inactive means no such curve, though single readings can be large or run the other way. Some of the results follow.

Test: Primary qHTS for Identification of Small Molecule Inhibitors of Huntingtin Promoter Activity; further: nearly all actives have a fitted effect of over 50% in size
Conditions: HEK293 HTT promoter firefly luciferase reporter (activity 0% = vehicle and -100% = no light), 24 h; series mostly up to 57.5 µM; activity change, negative = inhibition: at the top concentration
Method in brief: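 Luminescence was read after Dual-Glo reagent and a 10 min room-temperature incubation. Values were normalized to vehicle (0% activity) and zero RLU (-100% activity). Reporter HEK293 cells had been exposed to compounds (up to 57.5 uM final) for 24 h.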

Activity change, negative = inhibition, inactive:
CCOc1ccc(-n2c(=O)c3c(C)c(C)sc3n(CC(=O)N3CCC(C)CC3)c2=O)cc1 -4.57%
O=C(NCc1ccccc1Cl)c1ccc(Cn2c(=O)c3cccn3c3cccnc32)cc1 -11.6%
COCCCNC(=O)c1cnn(-c2ccc(F)cc2F)c1C1CCNCC1 -13.9%
COc1cc([C@H]2Oc3cc([C@H]4Oc5cc(O)cc(O)c5C(=O)[C@@H]4O)ccc3O[C@@H]2CO)ccc1O 0.239%
Cc1ccc2nc(NC(=O)c3nc(SCc4ccccc4C)ncc3Cl)sc2c1 -9.11%
O=C(O)CCc1nnc2cnc3ccccc3n12 1.38%
Cc1ccc2ncc(C(=O)NC(C)c3ccccc3)c(=O)n2c1 (stereo unspecified) -5.86%
CC(=O)N1CCC2(CC1)OC(=O)C(C)=C2C(=O)NCc1cccc(Cl)c1 -21%
Cc1ccc(N2C(=O)CS(=O)(=O)C23C(=O)N(C)c2ccccc23)cc1F (stereo unspecified) -19.5%
Cc1ccc(N2CCN(C(=O)c3c(C)oc4ncnc(N5CCOCC5)c34)CC2)c(C)c1 -9.68%
COc1cc(NC(=O)NCC2CCN(Cc3ccc(C)cc3)CC2)cc(OC)c1OC -21.7%
Cc1ccc(C(=O)Nc2nnc(S(=O)(=O)N3CCN(c4ccc(F)cc4)CC3)s2)cc1 22.1%
C[N+](C)(C)CC(O)CC(=O)[O-] (stereo unspecified) 0.119%
Cc1ccc(CNC(=O)c2cnc3c(-c4ccccc4)c(C)nn3c2C)o1 -13.8%
O=[N+]([O-])c1cc(-c2nc(-c3ccccn3)no2)ccc1NCc1ccccc1 33.4%
COCCCNC(=O)CCC(=O)NNc1nc2ccccc2c2nc(-c3ccccc3)nn12 -7.12%
O=C(NCCc1ccccc1)C(=O)NCC(c1ccco1)S(=O)(=O)c1ccccc1 (stereo unspecified) -20.5%
COCCNC(=O)CSc1nc2cc3c(cc2c(=O)n1Cc1ccc(C(=O)NCCc2ccc(OC)c(OC)c2)cc1)OCO3 -14.8%
CCOc1ccc(NC(=O)CSc2nnc(-c3ccncc3)n2-c2ccccc2)cc1 9.22%
Nc1c[n+](N2CCOCC2)no1 -2.16%
COc1ccc(CNC(=O)c2ccc(CSc3nc4ccncc4n3Cc3ccccc3F)cc2)cc1 -20.2%
CCOc1ccc(Nc2ncnc3c2cnn3-c2ccc(F)cc2)cc1 8.66%
CCOC(=O)C(=O)Nc1nnc2n1CCS2 -8.94%
COc1ccc(NC(=O)Cn2c(=O)n(Cc3ccccc3)c(=O)c3oc4ccccc4c32)cc1Cl 5.97%
Cc1nc2c(C(=O)NCc3ccccc3Cl)cnn2c(C)c1Cc1ccccc1 4.63%
Cn1cc(S(=O)(=O)N2CCCCC2)cc1C(=O)N1CCN(c2ccccc2F)CC1 -16%
COc1cccc(-c2csc(-c3c(N)c(C(=O)c4ccccc4)n4ccccc34)n2)c1 4.6%
O=C(CSc1nc2c([nH]c3ccccc32)c(=O)n1-c1ccc(Cl)cc1)N1CCCCCC1 -5.99%
Cc1nc2n(c(=O)c1CCN1CCC(c3noc4cc(F)ccc34)CC1)CCC[C@H]2O 4.06% [at 25.2 µM]
CCOC(=O)c1ccccc1NC(=O)Cn1c(=O)n(CCCC(=O)NCc2ccc3c(c2)OCO3)c(=O)c2ccccc21 -5.79%
CCCCOc1cc(C(=O)OCCN(CC)CC)ccc1N -8.94%
CCc1ccc(-c2nc(CN3CCCC(C(=O)NCc4ccc(C)cc4)C3)c(C)o2)cc1 (stereo unspecified) -5.18%
CN1CCN(N)CC1 -0.385%
COc1ccc(-c2cc3nc(C)c(CCC(=O)Nc4cccc(C(F)(F)F)c4)c(C)n3n2)c(OC)c1 -22.7%
Cc1ccnc(NC(=O)c2c(C)oc3ncn(CC(C)C)c(=O)c23)c1 81.5%
Cc1ccc(CNC(=O)Nc2cn(CC(C)C)c(=O)c3ccccc23)cc1 -15.5%
CN(C(=O)Cn1cc(S(=O)(=O)N2CCN(c3ccccc3F)CC2)c2ccccc2c1=O)c1ccc(Cl)cc1 0.758%
COCC(C)NC(=O)c1cnn2c(C(F)F)cc(-c3ccccc3)nc12 (stereo unspecified) -11.4%
Clc1ccc2nsnc2c1NC1=NCCN1
Cc1cc(C)c(NC(=O)CN2c3ccccc3S(=O)(=O)c3ccccc32)c(C)c1 -29.2%
O=C(NCCCN1CCN(c2ccccc2F)CC1)c1cc2c(Cl)nc3ccccc3c2s1 -21.3%
CCCCCOc1ccc(NC(=O)Cc2csc(C)n2)cc1 -6.48%
Cc1nnc(SCc2ccccc2Cl)c2cc3sccc3n12 28.4%
O=C(Nc1sc2c(c1C(=O)Nc1ccc(Cl)cc1)CCCC2)c1cccs1 -14.2%
Cc1cc(Nc2cc(N3CCN(C)CC3)nc(Sc3ccc(NC(=O)C4CC4)cc3)n2)n[nH]1 -8.35%
Cc1ccc(CN2COc3cc(C)c4c(oc(=O)c5ccccc54)c3C2)cc1 -9.33%
CCOc1ccc(NC(=O)c2cnn(-c3ccc(C)c(Cl)c3)c2C2CCNCC2)cc1 -8.7%
Cc1ccc2[nH]c(C(=O)Nc3ccccc3)cc2c1 23.1%
CCOc1cc(C2NC(=O)c3c(sc4c3CCN(C)C4)N2)ccc1OC(=O)c1ccccc1Cl (stereo unspecified) -30.7%
Cc1ccc(S(=O)(=O)CCC(=O)Nc2ccc(Br)cc2C)cc1 -10.4%
COc1ccc(NC(=O)Cn2c(=O)cc(C)c3c(C)nn(-c4cccc(Cl)c4C)c32)cc1OC -18.7%
O=C(NC1CC(=O)N(c2ccc3c(c2)OCCO3)C1)c1c(F)cccc1Cl (stereo unspecified) -11.7%
CCOC(=O)c1cc(-c2ccccc2)n(CC(=O)NC2CCC(C)CC2)c1C (stereo unspecified) -0.835%
COCCNc1oc(-c2ccc(COc3ccc(OC)cc3)o2)nc1C#N 8.59%
Cc1ccc(-c2nn(-c3ccc(F)cc3F)c3c2cnc2c(F)cccc23)cc1 -12.2%
CCc1ccc2oc(-c3cccc(NC(=O)c4cc5ccccc5o4)c3)nc2c1 40%
Cc1nc2c(C(=O)O)cnn2c(C)c1Cc1ccccc1 4.44%
Cc1ccccc1C(=O)Nc1nc2nc(C)c(C)c(=O)n2[nH]1 -0.92%
CCCc1nn2c(=O)cc(COC(=O)c3ccc(NC(=O)CCc4ccccc4)cc3)nc2s1 -30.8%
Cc1ccc(C(=O)CSc2ncc3c(n2)-c2ccccc2N(Cc2ccc(Cl)cc2)S3(=O)=O)cc1 -20%
CC(=O)Nc1nnc(S(N)(=O)=O)s1 -0.389%
CCCCOc1ccc(C(=O)Nc2ccc(F)cc2F)cc1 -14.1%
CCCCOc1ccc(CNC(=O)c2ccc(-c3nc(CN4CCc5ccccc54)c(C)o3)cc2)cc1 -23.8%
CC(=O)Nc1c(I)cc(I)c(C(=O)O)c1I -2%
Cc1cc2cc3c(C)cc(=O)oc3c(C)c2o1 3.54%
COc1cccc(NC(=O)c2sc3nc4n(c(=O)c3c2C)CCC4)c1 80.1%
CC1=C(C(N)=O)C(c2ccc(C)cc2)n2nc(SCc3ccccc3F)nc2N1 (stereo unspecified) -4.81%
CC(=O)Nc1ccccc1-c1nc2ccccc2n(CC(=O)c2ccc(Br)cc2)c1=O -13.1%
COc1cccc(CNC(=O)CSc2nnc(C)c3c(C)n(-c4ccccc4)nc23)c1OC -3.54%
COC(=O)CNC(c1ccccc1)c1cc(Br)ccc1NC(=O)c1ccccc1 (stereo unspecified) -8.82%
COc1cccc(-n2cc(C(=O)Nc3cc(OC)c(OC)c(OC)c3)c3ccccc3c2=O)c1 -6.04%
NC1=N[C@@]2(c3cc(NC(=O)c4ccc(F)cn4)ccc3F)COC[C@@H]2CS1 -19.5%
CCc1cccc(C)c1NC(=O)C1CCN(c2nn3c(=O)cc(C)nc3s2)CC1 -11.8%
Cc1ccc2oc(=O)c3cc(C(=O)Nc4ccccc4C(N)=O)sc3c2c1 -4.8%
N#CSCC(=O)O 3.21%
Cc1onc(-c2c(F)cccc2Cl)c1C(=O)Nc1ccc(OC(C)C)cc1 -13.3%
O=C1CCCc2cc(S(=O)(=O)NCC3CCC(C(=O)NCc4ccccc4Cl)CC3)ccc2N1 (stereo unspecified) -25.4%
Cc1cccc(NC(=O)Nc2ccc(Br)cc2)n1 47.8%
COc1ccc(S(=O)(=O)c2c(O)c3ccc(C(=O)NCc4ccccc4)cc3[nH]c2=O)cc1 -9.95%
CCOCCCn1c(=N)c(C(=O)NCc2cccnc2)cc2c(=O)n3cc(C)ccc3nc21 4.6%
CCOC(=O)c1cnc2c(ccc3ccccc32)c1Nc1ccc(OCC)cc1 -20.5%
CCOc1ccc(Nc2cc(C)nc3nc(Cc4ccc(Cl)cc4)nn23)cc1 -20.7%
Cc1ccc(-n2nc3c(N4CCC(C(=O)NC(C)c5ccccc5)CC4)nnc(C)c3c2C)cc1 (stereo unspecified) -21.9%
O=C(Cn1ccc2ccccc2c1=O)NCCC(=O)Nc1ccc(F)cc1F -21.1%
COc1ccccc1N1CCN(C(=O)c2c(C)oc3ncn(CC(C)C)c(=O)c23)CC1 11%
O=C(CCCl)NCCc1ccccc1 9.45%
CCN(CC)Cc1c(NC(=O)c2ccc(OC)cc2)sc2c1CCCC2 -1.06%
COc1ccc(CCNC(=O)Cn2c(=O)c3cccn3c3ccc(F)cc32)c(OC)c1 -4.81%
CC(=O)Nc1ccc(Nc2nc3c(S(=O)(=O)c4cccc(Cl)c4)nnn3c3ccsc23)cc1 -14.2%
Cc1oc2ncn(CC(C)C)c(=O)c2c1C(=O)NCCCN1CCC(C)CC1 12.9%
O=C(COc1ccccc1F)OCc1cc(=O)n2nc(C3CC3)sc2n1 -14.9%
COc1ccc(-c2cc(C(=O)Oc3cccc(C)c3)c3cc(C)ccc3n2)cc1 -5.1%
Cc1ccc(NC(=O)CN2C(=O)CCc3cc(S(=O)(=O)N4CCCCC4)ccc32)cc1C -13.6%
Cc1cc(C)cc(-n2c(C)nc3cc(C(=O)NCc4ccccc4Cl)ccc32)c1 -0.854%
COc1cccc(C(=O)Nc2ccc(-n3nncc3-c3ccccc3)cc2)c1 -13.8%
CC[C@@H](C)[C@@H](C(=O)Nc1ccc(C)cc1)N1Cc2ccccc2C1=O -24.4%
CCCn1c(=O)c2c(nc3n2CCN3c2ccc(C)cc2)n(C)c1=O -0.992%
Cc1ccc(CN(C(=O)COc2ccc(Cl)cc2C)C2CCS(=O)(=O)C2)o1 (stereo unspecified) -23.1%
CSc1ccc(C2c3c(oc4cc(C)cc(C)c4c3=O)C(=O)N2CCO)cc1 (stereo unspecified) 6.85%
Cc1nc2sc(C(=O)N(C)c3ccccc3)c(NC(=O)c3ccccc3Cl)c2c(C)c1C 15.9%
CCOc1ccc(NC(=O)N(Cc2c[nH]c3ccccc23)C2CCCCCC2)cc1 48.1%
